Hit rate of the full screen: of about 360,000 compounds, about 6,000 (1.7%) were called active. The inconclusive results got no clear call from the source; some entries with a clear call stand among them for comparison. Calls follow the shape of the dose curve; as a rule, active = well fitted cell-killing curve with a large enough effect; inconclusive = small, poorly fitted or top-dose-only effect, or effect the other way; inactive = flat fitted curve, though single readings scatter. No potency is given beside an inconclusive call; the fits are too rough.
Assay: qHTS for induction of synthetic lethality in tumor cells producing 2HG: qHTS for the HT-1080-NT fibrosarcoma cell line;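 also: NT is the 2HG producing partner of a matched IDH1 knockdown line; nearly all actives have a fitted effect of over 55% in size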;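 as to activity, negative = less viability: 0% = DMSO-treated cells and -100% = media-only wells without cells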
Settings: HT-1080-NT fibrosarcoma viability, CellTiter-Glo ATP luminescence, 48 h; activity, negative = less viability: at 46.1 µM (top of the series) unless noted
Outline: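 Read-out is CellTiter-Glo luminescence after 10 minutes at room temperature, following 48 hours' compound treatment of HT-1080-NT cells (750 cells/well, RPMI, 5% FBS, 37 degrees C).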
Potency is read from the fitted curve at half-maximal effect; tags tell the direction and shape of the fitted curve.

Structure (SMILES) | Potency | activity, negative = less viability
O=C(CCl)Nc1ccc(S(=O)(=O)NC2=NCCCCC2)cc1 | inconclusive [cytotoxic, single point] | –
COc1ccc(CN2CCC2(C)C(=O)Nc2cccc(NS(C)(=O)=O)c2)c2ccccc12 (stereo not given) | inconclusive [cytotoxic, single point] | –
Cc1coc(C)c1C(=O)CC1(O)C(=O)N(Cc2ccccc2)c2ccccc21 (stereo not given) | – | inactive: -8.47%
Cc1cc(C)cc(C(=O)OCC(=O)NC(=O)NC2CCCC2)c1 | – | inactive: 11.1%
Cn1c(=O)c([N+](=O)[O-])c(-n2cnc3ccccc32)c2ccccc21 | inconclusive [cytotoxic, single point] | –
CS(=O)(=O)N1c2ccccc2[C@]2(Br)C[C@H]3C(=O)N[C@@H](Cc4ccccc4)C(=O)N3[C@H]12 | – | inactive: 17.6%
O=C(CCCl)Nc1nnc(SCC(=O)NC2CCCC2)s1 | active: 14.6 µM | –
O=C(Cc1ccccc1)NC(=S)Nc1cc(C(F)(F)F)ccc1Cl | inconclusive [cytotoxic, single point] | –
S=c1[nH]nc(COc2ccccc2)n1C1CCCCC1 | – | inconclusive: 10.3%
O=C(CCCn1cnc([N+](=O)[O-])n1)Nc1ccc(Cl)cc1Cl | – | inactive: -5.56%
COc1ccc(Cc2c(-c3ccco3)nc3ccc(Br)cn23)c(C)c1 | inconclusive [cytotoxic, single point] | –
O=C(Nc1ccc([N+](=O)[O-])cc1)Nc1ccc2c(c1)OCCO2 | – | inactive: -9.67%
COc1ccc(NC(=O)c2ccc(C)cc2Cl)c([N+](=O)[O-])c1 | inconclusive [cytotoxic, single point] | –
COc1ccccc1CCN=C(N)NS(=O)(=O)c1ccc(F)cc1 | – | inactive: 4.97%
O=C(Sc1ccccc1)c1cccc(Cn2cc(C(F)(F)F)ccc2=O)c1 | active: 18.4 µM | –
Cn1cc(C(=O)N/N=C/C2=C(N3CCOCC3)C(=C/c3ccc([N+](=O)[O-])cc3)/CC2)ccc1=O | – | inactive: -4.87%
NC1=C(Cl)C(=O)c2ccc(S(N)(=O)=O)cc2C1=O | active: 8.2 µM | –
COc1ccc(C(=O)N(CCc2ccccc2)Cc2ccccc2)cc1S(=O)(=O)N1CCOCC1 | – | inactive: -1.73%
COc1ccc2[nH]c3c(C)c4ccncc4c(C)c3c2c1 | active: 23.1 µM | –
COc1ccc2[nH]c(C(=O)Nc3ccc(F)cc3Br)cc2c1 | – | inconclusive: -22% [cytotoxic]
Cn1c(=O)c2c(nc(NCCNC(=O)c3ccco3)n2Cc2ccc(Cl)cc2Cl)n(C)c1=O | – | inactive: -0.224%
c1ccc(C2=NNC(=NC3CC3)SC2)cc1 | inconclusive [cytotoxic, partial curve] | –
COC(=O)C1=C(C)N(c2ccc(Cl)c(Cl)c2)C(=O)C1 | active: 14.6 µM | –
O=C1C=C(Nc2ccc(Cl)cc2)CC(c2ccco2)C1 (stereo not given) | inconclusive [cytotoxic, single point] | –
CC1(C)CC(=O)C=C(c2ccc(OC(F)(F)F)cc2)C1 | inconclusive [rising, single point] | –

Structure (SMILES) | Potency | activity, negative = less viability
CCOC(=O)c1sc(=NC(=O)c2cccc(C)c2)n(C)c1C | – | inconclusive: 30.4%
Cc1cccc(NC(=O)CNC(=O)c2ccccc2Cl)n1 | inconclusive [rising, single point] | –
O=S1(=O)CCN(C2CCCCCCC2)CC1 | – | inactive: 13.3%
Cc1ccc(F)cc1NC(=O)CCNC(=O)c1ccc([N+](=O)[O-])cc1 | – | inactive: 2.71%
O=C(O)/C=C/C(=O)N1CCN(c2cccc(Cl)c2)CC1 | – | inactive: -11.8%
COc1cc(CN(C)CCc2ccccn2)cc(OC)c1OC | – | inactive: 18.9%
CCCCn1c(-c2csc3c2CCC(C)C3)n[nH]c1=S (stereo not given) | inconclusive [cytotoxic, single point] | –
Cc1ccc(C)c(OCCCCn2ccnc2)c1 | inconclusive [cytotoxic, single point] | –
CC(C)C(N)c1csc(NC(=O)Nc2cccc(Cl)c2)n1 (stereo not given) | active: 23.1 µM | –
CCC(C)N1C(=O)S/C(=C/c2ccc(Sc3nc4ccccc4[nH]3)o2)C1=O (stereo not given) | inconclusive [cytotoxic, single point] | –
CCOc1ccc(NC(=O)C2CCN(S(=O)(=O)c3c(C)noc3C)CC2)cc1 | inconclusive [cytotoxic, single point] | –
COc1cccc(CNCC(O)COc2ccc(C(=O)c3ccccc3)cc2)c1 (stereo not given) | inconclusive [cytotoxic, partial curve] | –
COc1ccc(CCc2ccc3cc(OC)ccc3n2)cc1 | – | inactive: -29%
COCCn1c(SCC(=O)Nc2ccccc2OC)nnc1-c1ccco1 | – | inactive: 14.2%
COC(=O)[C@@]12C[C@@H](CC(=O)NCCc3ccccc3OC)C(=O)N(Cc3ccccc3)C1=CCC(C)(C)C2 | inconclusive [cytotoxic, single point] | –
COc1ccc(CNC(=O)/C(C#N)=C/c2cccc(OC)c2OC)cc1 | inconclusive [cytotoxic, single point] | –
O=C(Nc1ccc(S(=O)(=O)N2CCc3ccccc32)cc1)c1ccc2c(c1)OCO2 | inconclusive [cytotoxic, single point] | –
COc1ccc(NC(=O)CSc2nc(NS(=O)(=O)c3ccc(C)cc3)cc(=O)[nH]2)cc1 | inconclusive [cytotoxic, single point] | –
CCN(CC)S(=O)(=O)c1ccc(N2CCN(c3ccccc3OC)CC2)c(N)c1 | inconclusive [cytotoxic, partial curve] | –
O=C(NCCNCC(O)COc1ccc(O)cc1)N1CCOCC1 (stereo not given) | inconclusive [rising, partial curve] | –
O=c1c(-c2ccco2)nc2ccccc2n1C(c1ccccc1)c1nc2ccccc2[nH]1 (stereo not given) | inconclusive [cytotoxic, partial curve] | –
Cc1ccnc(NS(=O)(=O)c2ccc3ccccc3c2)n1 | – | inactive: 11.5%
CCCOc1ccc(/C=c2\sc3ncnn3c2=O)cc1 | – | inconclusive: 30.6%
O=C1CC[C@@H](CN(Cc2ccccc2)Cc2cn[nH]c2-c2cc3ccccc3o2)N1 | inconclusive [cytotoxic, partial curve] | –
Cc1cc([N+](=O)[O-])c(NCCCCCCO)c([N+](=O)[O-])c1 | inconclusive [cytotoxic, single point] | –

Structure (SMILES) | Potency | activity, negative = less viability
CC(CC(=O)N1CCc2ccccc21)c1ccccc1 (stereo not given) | inconclusive [rising, full curve, poor fit] | –
N#Cc1c(-c2ccccc2)c(-c2ccccc2)nn(CC(=O)NNC(=O)Nc2ccc(Cl)c(Cl)c2)c1=O | active: 20.6 µM | –
OC(COCCC12CC3CC(CC(C3)C1)C2)CN1CCCCC1 (stereo not given) | inconclusive [cytotoxic, single point] | –
COc1ccc(NC(=O)c2cc3c(=O)n4ccccc4nc3n2C)c(OC)c1 | – | inactive: 27.3%
Cc1cc(=O)n2nc(N3CCC(C(=O)NCCc4ccc(Cl)cc4)CC3)sc2n1 | inconclusive [cytotoxic, single point] | –
COc1ccc(S(=O)(=O)NC(=O)C2(C)CCN2C(=O)Cc2cc(F)ccc2F)cc1 (stereo not given) | – | inactive: 19.6%
O=C(CC[C@H]1O[C@@H](n2ccc(=O)[nH]c2=O)[C@H](O)[C@@H]1O)N[C@H](Cc1ccccc1)C(=O)NC1CCCCC1 | inconclusive [rising, partial curve] | –
CC1=C(C(=O)N(C(C)C)C(C)C)CC(CC(=O)NCc2ccco2)C(=O)N1CCCN1CCCC1=O (stereo not given) | – | inconclusive: 38.8%
N#CC1=C(N)N(c2ccccc2)C2=C(C(=O)CCC2)C1c1ccsc1 (stereo not given) | active: 11.2 µM | –
CC1CCN(CCCNC(=O)CCNC(=O)Cn2cnc3ccccc3c2=O)CC1 | – | inactive: 6.82%
Cc1noc(C)c1COc1cccc(C(=O)Nc2ccc(Br)cc2F)c1 | inconclusive [cytotoxic, single point] | –
CC(C)CCn1c(Oc2ccccc2Cl)nc2c1c(=O)n(C)c(=O)n2C | inconclusive [cytotoxic, single point] | –
O=C1S/C(=C\c2ccc(N3CCOCC3)o2)C(=O)N1c1ccccc1 | inconclusive [cytotoxic, single point] | –
COc1cc(Nc2ncnc(N)n2)cc(OC)c1 | – | inactive: 1.6%
O=C(/C=C/c1ccccc1)NNc1ccc(Cl)cc1 | inconclusive [cytotoxic, single point] | –
CC1=CC(C)(C)N(S(=O)(=O)c2ccc(F)cc2)c2ccccc21 | active: 11.2 µM | –
O=c1[nH]c(C2CCN(S(=O)(=O)c3cccc(Cl)c3)CC2)nc2c1nnn2Cc1ccccc1 | inconclusive [cytotoxic, partial curve] | –
Cc1ccc(C(=O)NNC(=O)c2cccc(C)c2)cc1 | inconclusive [rising, single point] | –
COc1cccc(-c2ccc(NC(=O)C3CCCN(CCCn4cccn4)C3)cc2)c1 (stereo not given) | – | inactive: -13.9%
COc1cc(CNC(=O)Nc2nc(C(N)CCc3ccccc3)cs2)cc(OC)c1OC (stereo not given) | inconclusive [cytotoxic, single point] | –
CCOP(=O)(OCC)C(Nc1ccccc1)c1ccc2c(c1)OCO2 (stereo not given) | – | inactive: -8.42%
NS(=O)(=O)c1ccc(N/N=C/c2cn(-c3ccccc3)nc2-c2cccs2)c([N+](=O)[O-])c1 | inconclusive [cytotoxic, partial curve] | –
Cc1nc2cc(NC(=O)CCS(=O)(=O)c3ccccc3)ccc2s1 | – | inactive: 1.17%
COc1ccc(/C=N/n2cncn2)cc1COc1ccc(NC(C)=O)cc1 | – | inactive: -1.11%
CCCCCc1c(-c2ccccc2)ncn1CCc1ccccc1OC | inconclusive [cytotoxic, single point] | –

From PubChem BioAssay AID686970 (National Center for Advancing Translational Sciences (NCATS), 2013)
